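Each compound was tested at five concentrations against cells in 96-well plates for 48 hours. The concentration for 50% growth inhibition is given as GI50. Definition used: TGI = concentration required for complete inhibition of growth.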
Tested on: NCI-H322M lung
Test: NCI-60 cell line screen, 48 h

SMILES	GI50 [µM]	TGI [µM]
CN1CCN(c2ccc(C(=O)/C=C/c3ccc(OC(F)F)cc3)cc2)CC1	14.4	27.4
O=C(N/N=C/c1ccc(B(O)O)o1)c1[nH]c2ccc(Br)cc2c1-c1ccccc1	41.4	> 100
